Assay results taken from paper PMC12505454 (The Febs Journal, 2025).

How the values were obtained:
[1] = biological target: T1, adenylyl cyclase Rv1625c (Mycobacterium tuberculosis, UniProt P9WQ35); experiment: biochemical
T1 construct: gene cya; Rv1625c AC holoenzyme

[2] = biological target: T1, adenylyl cyclase Rv1625c; experiment: biochemical

T1 sequence (P9WQ35 whole entry): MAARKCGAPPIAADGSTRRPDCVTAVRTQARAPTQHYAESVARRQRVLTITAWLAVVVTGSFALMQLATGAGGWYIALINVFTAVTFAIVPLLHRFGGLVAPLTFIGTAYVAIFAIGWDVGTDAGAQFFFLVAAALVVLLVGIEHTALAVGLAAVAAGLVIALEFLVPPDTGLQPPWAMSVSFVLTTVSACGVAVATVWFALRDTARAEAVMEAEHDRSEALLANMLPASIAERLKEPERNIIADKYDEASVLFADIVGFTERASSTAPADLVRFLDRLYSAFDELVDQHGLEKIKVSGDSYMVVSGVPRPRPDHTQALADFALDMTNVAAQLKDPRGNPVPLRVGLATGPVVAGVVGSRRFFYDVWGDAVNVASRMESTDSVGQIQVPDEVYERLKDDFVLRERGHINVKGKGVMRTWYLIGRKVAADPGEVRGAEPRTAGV

Structure (SMILES)	IC50 [1] [µM]	IC50 [2] [µM]
CCCCCC/C=C\CCCCCCCCCC(=O)O [cis-vaccenic acid]	17.7	
CCCCCCCC/C=C/CCCCCCCC(=O)O [elaidic acid, (E)-9-octadecenoic acid]	8.9	
CCCCCCCC/C=C\CCCCCCCC(=O)O [oleic acid, (Z)-9-octadecenoic acid]		18
CCCCCC/C=C/CCCCCCCCCC(=O)O [trans-vaccenic acid]	8.9	

Read-outs that look alike come from different tables or passages of the source.
